The values below come from article PMC10668032.

This is one part of the list. At the low end of the ranking the order means little.

For this assay, the target named is SIX1 homeodomain (reference allele) (UniProt Q15475). Kind of assay: universal protein binding microarray. The conditions noted are these: Universal all-10-mer PBM (8x60K, AMADID 030236), 300 nM GST-tagged protein, Alexa Fluor 488 anti-GST; buffer, salt, pH and temperature not stated; high values mean tight binding; most listed sequences are background and not binding sites; double strand, one strand shown.
Turning to AAGGGAGT, the binding signal was -0.0708 E-score. As to GGCACTCA, the binding signal was -0.172 E-score. Under TTGCAAAA stands -0.136 E-score; under AGAGACGA, 0.0998 E-score.

With AAACTTGG, the binding signal was -0.0663 E-score. Turning to CATTGCTA, the binding signal was -0.0124 E-score.

Regarding AGTCTAGG, the binding signal is -0.218 E-score. The result for GTGGTCAA reads -0.188 E-score; that for AGAACGGA, 0.152 E-score; that for GTATATAC, 0.316 E-score.

CTTGCGAC: the binding signal is 0.0198 E-score. Under TCAAAAGA stands -0.00461 E-score; under TCGGAAGA, -0.0895 E-score; under CAGGACTG, -0.136 E-score.

On to CGAGGTAG, for which the binding signal was -0.0176 E-score.

In the case of CTGAACAG, the binding signal is -0.0809 E-score.

Consider AATACAGC, for which the binding signal came out at 0.0583 E-score.

Take GCGTCAGC: the binding signal is -0.196 E-score.

Regarding AACGCTTC, the binding signal was -0.273 E-score. The result for AAACGGTG reads 0.0199 E-score. For the sequence ATCACGCG, the binding signal amounted to 0.229 E-score. Under ACAGCTAG stands -0.101 E-score. The result for ACTCAAAT reads -0.211 E-score; that for ACCGCGCC, -0.197 E-score. Under GGAACAAC stands -0.269 E-score; under CTATTCTA, -0.0429 E-score. Take GACGTCGA: the binding signal is -0.113 E-score.

ATGAGATA: the binding signal was 0.262 E-score. The result for AGACGACC reads -0.108 E-score; that for CCTATGTC, -0.114 E-score. The result for GATAGGTA reads 0.325 E-score; that for GAATGATA, 0.412 E-score; that for ACCCGCGC, 0.118 E-score. The result for ACAAAGCC reads -0.311 E-score; that for CAATTGGA, -0.0926 E-score; that for GGAACGAC, -0.301 E-score. Take ATGCTCTA: the binding signal was -0.0177 E-score. Under GCGGCCGC stands -0.0849 E-score; under AATCTACC, 0.0996 E-score. With AAATCATG, the binding signal was -0.0525 E-score. With CAGTAACC, the binding signal stood at 0.00862 E-score. Under ACTTACCT stands -0.0658 E-score; under GTGTTCAA, -0.000595 E-score; under ATAGATAT, 0.389 E-score. CGTCGTGC: the binding signal was -0.169 E-score.

Take CACTATGG: the binding signal worked out at 0.0509 E-score. Under GTTGGCTA stands -0.281 E-score; under CGAGGCCC, -0.163 E-score. The result for CGTTAAAG reads -0.102 E-score; that for GGCTAATA, 0.201 E-score. Under CATCACGA stands -0.0199 E-score. AAATTCGA: the binding signal is -0.131 E-score. The result for CCATAGAG reads -0.0844 E-score.

On to TCAGCAGA, for which the binding signal was -0.0658 E-score. The result for ACACCTGT reads 0.277 E-score; that for GCGTGGTA, 0.0657 E-score.

On to AAAGAGGA, for which the binding signal came out at 0.13 E-score. As to GCTCGTAC, the binding signal was -0.074 E-score. In the case of CTAGCGGC, the binding signal is -0.0633 E-score. Under AATATGTA stands 0.0617 E-score; under CCTTTCCC, -0.149 E-score; under GCTCTAAA, -0.202 E-score.

For the sequence ATTTGAGA, the binding signal amounted to 0.132 E-score. On to AAATATGC, for which the binding signal came to 0.0709 E-score.

GCCTAAGA: the binding signal was -0.172 E-score. Under GAGTACCC stands 0.0537 E-score. The result for AATCCTCA reads -0.00873 E-score. The result for CAACCCCA reads -0.0787 E-score; that for AGTGGTTG, -0.216 E-score. Consider CGGTGTTA, for which the binding signal is 0.312 E-score. With ACTGGGTC, the binding signal was -0.225 E-score. The result for AGATGGGC reads -0.093 E-score; that for AGCAGCTA, -0.0667 E-score. Under CAGCTACC stands -0.0466 E-score; under AAATTACT, -0.101 E-score. Under CGTATCCA stands 0.403 E-score; under CAGCACCG, 0.0319 E-score.

TACGGCGA: the binding signal was determined as 0.177 E-score. The result for GCGTCGCC reads -0.22 E-score.

As for AACCCGGA, the binding signal is 0.215 E-score.

As to ACGACTAA, the binding signal is -0.199 E-score.

As to GCGCCGTA, the binding signal amounted to 0.000735 E-score. On to ACAACGAC, for which the binding signal is -0.202 E-score. Under GACTAACC stands -0.204 E-score. For CGACATGC, the binding signal stood at 0.082 E-score. Consider ACCTAGAG, for which the binding signal is 0.0359 E-score. For the sequence CCAGACTA, the binding signal is -0.0472 E-score.

Regarding CCAGCTTA, the binding signal was -0.00604 E-score. Under AATGTCTA stands -0.0129 E-score; under ATGAGGAG, -0.0427 E-score; under CTACCCGC, 0.0519 E-score. Under AGAAGGCC stands -0.175 E-score; under CGACGGCC, -0.283 E-score. ACGAGACG: the binding signal worked out at 0.131 E-score. On to ACGCATAG, for which the binding signal turned out to be 0.0335 E-score. Consider AGCCTCTG, for which the binding signal was -0.118 E-score. With ATACAAAA, the binding signal was determined as 0.111 E-score. The result for ACTCTACG reads -0.0959 E-score; that for CTTCAAAA, -0.151 E-score. Under GCGAGGCA stands -0.116 E-score; under CGTCTCAC, 0.254 E-score; under GATTTTAA, -0.167 E-score.

As for AAATCACA, the binding signal was -0.235 E-score. The result for CACCACGG reads -0.0179 E-score. The result for ATTTTTCG reads -0.193 E-score; that for AATATCTC, 0.274 E-score. For ACCATTTA, the binding signal is -0.101 E-score.

Consider GGAAACAA, for which the binding signal is -0.094 E-score. In the case of AATCCCAA, the binding signal is -0.00318 E-score. Consider AACCGAGA, for which the binding signal was 0.162 E-score. The result for AAGTGGAT reads 0.182 E-score; that for TAAAAATA, 0.0228 E-score. Under AAGTTACC stands -0.139 E-score; under CCAGTCGA, 0.0789 E-score. Consider AAAGTTCA, for which the binding signal was -0.18 E-score. On to TTGCGAAA, for which the binding signal was -0.0667 E-score. Take ACCTAATA: the binding signal was 0.2 E-score.

In the case of AAAAAAAC, the binding signal was -0.327 E-score. Under ATAGCCTC stands 0.184 E-score. As to ACGCTAGG, the binding signal is -0.0657 E-score. Regarding CAGTACAG, the binding signal was -0.0151 E-score. Under CATCATAG stands -0.0304 E-score.

Turning to ACCCTCGC, the binding signal was -0.163 E-score. As to GGATAACA, the binding signal was 0.237 E-score.

Turning to CGTCTTGA, the binding signal was found to be 0.0536 E-score. The result for ATTGGCTC reads -0.0679 E-score.

For the sequence TCTGCTCA, the binding signal was 0.00471 E-score.

As to TCACAGGA, the binding signal came to 0.0301 E-score. Take CCGCTGCA: the binding signal is -0.232 E-score. Regarding GTCTGAAC, the binding signal was -0.0323 E-score. Under CACGTATG stands 0.144 E-score; under CTTATTTA, -0.206 E-score. Under AGTGCCAC stands -0.118 E-score. Take CCCGCAAC: the binding signal was -0.0417 E-score. For the sequence CGTCGGAG, the binding signal is -0.0392 E-score. For the sequence ATAGGCTA, the binding signal was 0.0844 E-score.

Turning to AATCGACT, the binding signal was -0.349 E-score.

GGATCGAA: the binding signal is 0.267 E-score. As to ACGTCATG, the binding signal was -0.175 E-score. As to ACAGAATC, the binding signal is -0.00969 E-score. For the sequence AAGAACTG, the binding signal is -0.0923 E-score. On to AGATGCCA, for which the binding signal was determined as 0.0207 E-score. Under AGTTAATA stands 0.145 E-score; under CTCGCTGC, -0.0302 E-score; under TAACCGAA, -0.0917 E-score. Regarding TAAGCAAA, the binding signal is -0.236 E-score. Under AGGACTTA stands -0.237 E-score; under CGAAATCA, -0.215 E-score. Under CCCAACAA stands -0.11 E-score; under AACTGCCG, -0.111 E-score; under AGGCACTG, -0.0522 E-score. In the case of CTTTTGCA, the binding signal was -0.0889 E-score. Consider GAGTTAGA, for which the binding signal is -0.0114 E-score.

With AATAGTTG, the binding signal is -0.243 E-score.

As for CGTAGAAA, the binding signal is -0.339 E-score. As to ACATTTAA, the binding signal was -0.118 E-score.

On to CAGAATAA, for which the binding signal is -0.118 E-score. The result for AGCTGACA reads -0.13 E-score. Take CACGATGG: the binding signal was -0.0175 E-score. As to GTTCTGAA, the binding signal is -0.0595 E-score. Take CCGGGTTA: the binding signal is 0.0696 E-score. Take CGGGCACC: the binding signal was 0.108 E-score.

For the sequence ATTTGAAA, the binding signal is -0.11 E-score. For GGAATCGA, the binding signal was -0.0144 E-score. With AGGCCTTG, the binding signal was -0.236 E-score. The result for CATCCAAA reads -0.0916 E-score; that for GTACTACA, 0.00829 E-score. The result for CCGACCGC reads -0.0178 E-score. Under ATTAACTC stands -0.0116 E-score; under AACAGTAG, -0.134 E-score. As for CCAAGCGC, the binding signal was -0.153 E-score. Under AATCACTA stands -0.0367 E-score.
